Reference: PMC4336329 (PLoS ONE, 2015)
In all, about 310,000 compounds went through this assay and about 14,000 (4.5%) showed an effect of 50% or more. The effect is printed as a negative number. Some of the results follow.

Biological target: human ether-à-go-go-related gene (hERG) potassium channel (human, UniProt Q12809)
Assay: primary screen, population patch clamp on CHO cells stably expressing hERG
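Also: peak tail current of the secondary pulse compared with the same well before compound.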

human ether-à-go-go-related gene (hERG) potassium channel, sequence (Q12809 whole entry, looked up): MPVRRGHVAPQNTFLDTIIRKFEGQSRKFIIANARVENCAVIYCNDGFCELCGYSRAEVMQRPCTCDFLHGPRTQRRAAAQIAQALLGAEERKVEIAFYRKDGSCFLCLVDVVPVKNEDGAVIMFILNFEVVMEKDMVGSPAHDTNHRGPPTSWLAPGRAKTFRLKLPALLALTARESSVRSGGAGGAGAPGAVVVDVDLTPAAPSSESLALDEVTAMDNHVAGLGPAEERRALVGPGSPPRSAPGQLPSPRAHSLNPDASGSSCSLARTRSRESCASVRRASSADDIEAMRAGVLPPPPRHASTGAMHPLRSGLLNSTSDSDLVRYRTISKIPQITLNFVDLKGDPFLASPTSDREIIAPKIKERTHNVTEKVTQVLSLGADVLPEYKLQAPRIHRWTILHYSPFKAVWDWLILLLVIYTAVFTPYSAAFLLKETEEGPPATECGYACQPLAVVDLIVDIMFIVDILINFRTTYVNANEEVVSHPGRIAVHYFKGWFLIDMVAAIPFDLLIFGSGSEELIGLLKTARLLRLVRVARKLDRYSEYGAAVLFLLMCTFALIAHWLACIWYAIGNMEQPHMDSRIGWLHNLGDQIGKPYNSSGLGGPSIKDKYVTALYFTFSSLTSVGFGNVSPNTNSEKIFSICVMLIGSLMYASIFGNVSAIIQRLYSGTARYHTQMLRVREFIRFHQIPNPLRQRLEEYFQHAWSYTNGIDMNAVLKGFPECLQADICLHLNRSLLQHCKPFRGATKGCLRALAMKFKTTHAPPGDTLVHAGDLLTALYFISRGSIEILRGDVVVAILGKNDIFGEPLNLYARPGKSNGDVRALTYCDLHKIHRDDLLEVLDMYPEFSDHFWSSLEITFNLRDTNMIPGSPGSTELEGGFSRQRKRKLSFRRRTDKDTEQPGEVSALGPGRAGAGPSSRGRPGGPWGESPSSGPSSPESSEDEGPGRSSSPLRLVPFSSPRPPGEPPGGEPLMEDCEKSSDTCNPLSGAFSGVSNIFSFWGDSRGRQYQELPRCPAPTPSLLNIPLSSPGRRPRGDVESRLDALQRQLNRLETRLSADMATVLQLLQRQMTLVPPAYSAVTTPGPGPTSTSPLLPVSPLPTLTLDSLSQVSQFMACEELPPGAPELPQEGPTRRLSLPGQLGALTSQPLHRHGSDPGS

SMILES	hERG current change (%, negative = inhibition) at 10uM [%]
N#Cc1c(N)n(-c2cccc(C(=O)O)c2)c2nc3ccccc3nc12	14.6
Cc1ccc(C)c(NS(=O)(=O)c2cc(C(=O)NCC3CCCO3)ccc2C)c1 (stereo not shown)	-47.7
O=C(O)c1ccc(/C=C(\c2nc3ccccc3[nH]2)c2nc3ccccc3s2)cc1	12.1
CCc1cc(C(=O)N2CCc3c([nH]c4ccccc34)C2c2ccc(OC)cc2F)no1 (stereo not shown)	15.7
CCOC(=O)N1CCN(C(=O)CSc2ccc(-c3ccccc3)nn2)CC1	-12.8
O=C(C1=C[C@@H](c2ccc(Br)cc2)C[C@@H](OCc2ccc(CO)cc2)O1)N1CCN(Cc2ccc3c(c2)OCO3)CC1	-9.55
Cc1ccc(S(=O)(=O)N2CCC(NC(=O)C3CCCCC3)CC2)cc1	-3.19
CSCCC(NC(=O)c1ccccc1Br)C(=O)N1CCN(C(C)=O)CC1 (stereo not shown)	8.22
CC(=O)c1ccc(NC(=O)C(C)N(C)CC(=O)Nc2ccc(Cl)cc2)cc1 (stereo not shown)	-36
CC(Cc1cccs1)NC(=O)Nc1ccc([N+](=O)[O-])cc1 (stereo not shown)	-19.5
CCn1c(COc2c(C)cccc2C)nnc1SCc1nc2ccccc2c(=O)[nH]1	-6.33
O=C(NNC(=S)Nc1cccc2ccccc12)c1cccc(Br)c1	19.1
Cn1nnnc1SCC(=O)N1CCN(c2ccc(Cl)cc2)CC1	-51.2
CCN(CC)CCNc1nc(-c2ccc(OC(F)F)cc2)c(C)s1	-77.8
CCOc1ccc2[nH]c(=O)c(CN(Cc3nnnn3Cc3ccccc3)CC3CCCO3)cc2c1 (stereo not shown)	-34.8
Cc1cc(-c2c(C)[nH]n(-c3ccc(Cl)cc3)c2=O)n(-c2ccc(Cl)cc2)n1	-0.392
Cc1ccc(NC(=O)c2ccc3nc(N4CCOCC4)sc3c2)c(Cl)c1	6.14
CCc1ccc(CN2CCCC(C(=O)N3CCCCC3)C2)cc1.O=C(O)C(=O)O (stereo not shown)	-42.7
CCC1SC2=NCN(c3ccccc3)CN2C1=O (stereo not shown)	0.517
O=C(O)CCCC(=O)Nc1cccc([N+](=O)[O-])c1	30.2
CCOCCCNCC(=O)Nc1ccc(S(=O)(=O)NC(C)CC)cc1.O=CO (stereo not shown)	9.28
CCOC(=O)C1CCCN(C(=O)C(C)Oc2ccc(Cl)cc2Cl)C1 (stereo not shown)	-9.02
COc1ccc(Cn2nnnc2CN2CCc3ccccc3C2)cc1.Cl	-15.3
Cc1cccc(C)c1-n1nnnc1SCSc1nnnn1-c1c(C)cccc1C	3.64
CCn1c(SCC(=O)N2CCc3ccccc3C2)nc2sc(C)c(C)c2c1=O	8.65
N#Cc1c2ccc(O)cc2n2ccccc12	25.7
Nn1c(SCC(=O)Nc2nc3ccccc3s2)nncc1=O	6.66
CC1C(C)C(O)(c2ccccc2)CCN1C (stereo not shown)	9.94

SMILES	hERG current change (%, negative = inhibition) at 10uM [%]
COc1ccc(CCNC(=O)C(=O)NCC2OCCN2C(=O)c2ccc(Cl)cc2)cc1OC (stereo not shown)	-10.9
Cc1ccccc1Oc1ncnc2sccc12	-14.7
COc1ccccc1NC(=O)Cn1nnc(-c2ccccc2NC(=O)c2cnccn2)n1	8.23
COCCC(=O)N1CCC(n2nccc2NC(=O)c2ccccc2C)CC1	12.6
Cc1c(Cc2ccccc2)c(NCCN(C)C)n2c(nc3ccccc32)c1C#N	-32.4
Cc1c(C(=O)NC(=S)NCC(C)C)oc2ccccc12	19.6
CCOc1ccc(C(=O)NCc2ccc3c(c2)OCO3)cc1	8.82
O=C(Nc1ccc2c(c1)OCCO2)c1cc(F)c(F)cc1Cl	6.91
Cc1ccccc1-c1nc(-c2ccc(NC(=O)c3cccs3)cc2)no1	15.6
CC(C)OC(=O)C1CC(C)(O)C(=O)C(C(=O)OC(C)C)C1c1ccc([N+](=O)[O-])cc1 (stereo not shown)	3.15
Cn1cnc(S(=O)(=O)Nc2ccc(Cl)c(C(F)(F)F)c2)c1	13.7
CCOC(=O)COc1ccccc1/C=C1/NC(=O)NC1=O	-3.68
Cc1cc(N2CCOCC2)ccc1/C=C1\NC(=O)N(Cc2ccccc2)C1=O	18.5
CCOC(=O)C(=CNc1ccccc1C)C(=O)OCC	-2.33
COc1cc(/C=N/NC(N)=O)ccc1OCC(=O)Nc1cc(C)c(C)cc1Br	41.7
O=C(Cn1nnc(-c2ccc(Cl)cc2)n1)NC1CCN(Cc2ccccc2)CC1	-16.9
CCOC(=O)N1CCN(C(=O)c2ccc3c(c2)ncn3C2CCCC2)CC1	-2.67
COc1ccc(NC(=O)N2CCN(S(C)(=O)=O)CC2)cc1	21.6
c1ccc(CNc2ncnc3c2oc2ccccc23)nc1	-1.56
O=C(N/N=C/c1ccc[nH]1)c1cccc([N+](=O)[O-])c1	-2.45
CCOC(=O)c1c(NC(=O)c2cccs2)sc(C)c1CC	2.45
COc1ccc(-n2c(=O)c3ccccc3n(CC(=O)NCc3ccco3)c2=O)cc1	18.3
CCn1c(=O)c2c(nc3n2CCS3)n(C)c1=O	8.6
Cc1cccc(/C=N/n2c(C)nc3ccccc3c2=O)c1	-10.7
Cc1cc(/C=C2\C(=O)NC(=O)N(c3ccc(Br)cc3)C2=O)c(C)n1-c1cc(C(=O)O)cc(C(=O)O)c1	9.45
CCN(CC)C(=O)c1ccc2c(=O)n(CCOC)c(=S)[nH]c2c1	-7.02
Cc1cccc(NS(=O)(=O)c2cc(C(=O)OC(C)C(=O)NCc3ccc4c(c3)OCO4)ccc2C)c1 (stereo not shown)	-17.3
